The list shows a part of the results.

In one assay the test system is HSkMC (human skeletal muscle cells). Nature of the assay: cytotoxicity call (relative viability < 0.9). The settings on record: 10 µM.
The next assay concerns HepG2. Nature of the assay: cytotoxicity call (relative viability < 0.9). The settings on record: 10 µM.
In another assay the test system is S. aureus RN4220. Nature of the assay: growth inhibition call (relative growth <= 0.2). The settings on record: 50 µM.

For the molecule `C[C@H](CO)N1C[C@H](C)[C@@H](CN(C)C(=O)c2ccc3c(c2)OCO3)Oc2ncc(C3=CCCC3)cc2C1=O`, the cytotoxicity call with HSkMC and with HepG2 was “inactive” in each case. Besides, in the assay on S. aureus RN4220, the growth inhibition call was “inactive”.
As to `C[C@@H]1CCCCO[C@@H](CN(C)C(=O)CCCN(C)C)[C@@H](C)CN([C@H](C)CO)C(=O)c2cc(NC(=O)Nc3cccc4ccccc34)ccc2O1`, the cytotoxicity call with HSkMC and in the assay on HepG2 was “inactive” in each case. For the same molecule, the growth inhibition call in the assay with S. aureus RN4220 was “inactive”.
As to `C[C@@H]1CN([C@H](C)CO)S(=O)(=O)c2ccc(-c3cccc(C#N)c3)cc2O[C@H]1CN(C)C(=O)c1cccnc1`, the cytotoxicity call with HSkMC and in the assay on HepG2 was “inactive” throughout. In addition, the growth inhibition call in the assay with S. aureus RN4220 is “inactive”.
On to `C[C@@H]1CCCCO[C@H](CN(C)CC2CC2)[C@H](C)CN([C@@H](C)CO)C(=O)c2cc(NC(=O)NC3CCCCC3)ccc2O1`, for which the cytotoxicity call with HSkMC and in the assay on HepG2 was “inactive” each time. Besides, the growth inhibition call in the assay with S. aureus RN4220 is “inactive”.
Consider `COc1ccc(CNC(=O)N(C)C[C@@H]2OCc3ccccc3-c3c(n(C)c4ccccc34)C(=O)N([C@@H](C)CO)C[C@H]2C)cc1`, for which the cytotoxicity call with HSkMC and in the assay with HepG2 was “inactive” in each case. Further, in the assay on S. aureus RN4220, the growth inhibition call was “inactive”.
Turning to `C[C@H](CO)N1C[C@H](C)[C@@H](CN(C)C(=O)Nc2cccc(C(F)(F)F)c2)OCc2ccccc2-c2ccccc2C1=O`, the cytotoxicity call with HSkMC and in the assay on HepG2 was “inactive” throughout. Further, the growth inhibition call with S. aureus RN4220 was “inactive”.
As for `CC1(C)Cc2c(-c3ccccc3)c(-c3ccc(Cl)cc3)c(CC(=O)O)n2C1`, the cytotoxicity call with HSkMC and in the assay on HepG2 was “inactive” each time. In addition, the growth inhibition call in the assay with S. aureus RN4220 is “active”.
`COCC(=O)Nc1ccc2c(c1)OC[C@@H](C)N(C(=O)Cc1cccnc1)C[C@H](C)[C@H](OC)CN(C)C2=O`: the cytotoxicity call with HSkMC and in the assay on HepG2 was “inactive” throughout. In addition, the growth inhibition call with S. aureus RN4220 is “inactive”.
On to `O=c1cccn[nH]1`, for which the cytotoxicity call in the assay with HSkMC and with HepG2 was “inactive” each time. For the same molecule, the growth inhibition call with S. aureus RN4220 is “inactive”.
As for `C[C@H](CO)N1C[C@H](C)[C@H](CN(C)Cc2ccc(C(F)(F)F)cc2)OCCCC[C@H](C)Oc2ccc(NC(=O)c3ccncc3)cc2C1=O`, the cytotoxicity call in the assay with HSkMC and in the assay on HepG2 was “inactive” in each case. Moreover, the growth inhibition call in the assay on S. aureus RN4220 was “inactive”.
